# Among all 310,000 compounds or so, about 14,000 (4.5%) showed an effect of 50% or more. The effect is printed as a negative number. Some of the results follow.
# Molecular target: human ether-à-go-go-related gene (hERG) potassium channel (human, UniProt Q12809)
# Test: primary screen, population patch clamp on CHO cells stably expressing hERG
# 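Further: peak tail current of the secondary pulse compared with the same well before compound.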
# Chain of human ether-à-go-go-related gene (hERG) potassium channel (Q12809 whole entry, looked up): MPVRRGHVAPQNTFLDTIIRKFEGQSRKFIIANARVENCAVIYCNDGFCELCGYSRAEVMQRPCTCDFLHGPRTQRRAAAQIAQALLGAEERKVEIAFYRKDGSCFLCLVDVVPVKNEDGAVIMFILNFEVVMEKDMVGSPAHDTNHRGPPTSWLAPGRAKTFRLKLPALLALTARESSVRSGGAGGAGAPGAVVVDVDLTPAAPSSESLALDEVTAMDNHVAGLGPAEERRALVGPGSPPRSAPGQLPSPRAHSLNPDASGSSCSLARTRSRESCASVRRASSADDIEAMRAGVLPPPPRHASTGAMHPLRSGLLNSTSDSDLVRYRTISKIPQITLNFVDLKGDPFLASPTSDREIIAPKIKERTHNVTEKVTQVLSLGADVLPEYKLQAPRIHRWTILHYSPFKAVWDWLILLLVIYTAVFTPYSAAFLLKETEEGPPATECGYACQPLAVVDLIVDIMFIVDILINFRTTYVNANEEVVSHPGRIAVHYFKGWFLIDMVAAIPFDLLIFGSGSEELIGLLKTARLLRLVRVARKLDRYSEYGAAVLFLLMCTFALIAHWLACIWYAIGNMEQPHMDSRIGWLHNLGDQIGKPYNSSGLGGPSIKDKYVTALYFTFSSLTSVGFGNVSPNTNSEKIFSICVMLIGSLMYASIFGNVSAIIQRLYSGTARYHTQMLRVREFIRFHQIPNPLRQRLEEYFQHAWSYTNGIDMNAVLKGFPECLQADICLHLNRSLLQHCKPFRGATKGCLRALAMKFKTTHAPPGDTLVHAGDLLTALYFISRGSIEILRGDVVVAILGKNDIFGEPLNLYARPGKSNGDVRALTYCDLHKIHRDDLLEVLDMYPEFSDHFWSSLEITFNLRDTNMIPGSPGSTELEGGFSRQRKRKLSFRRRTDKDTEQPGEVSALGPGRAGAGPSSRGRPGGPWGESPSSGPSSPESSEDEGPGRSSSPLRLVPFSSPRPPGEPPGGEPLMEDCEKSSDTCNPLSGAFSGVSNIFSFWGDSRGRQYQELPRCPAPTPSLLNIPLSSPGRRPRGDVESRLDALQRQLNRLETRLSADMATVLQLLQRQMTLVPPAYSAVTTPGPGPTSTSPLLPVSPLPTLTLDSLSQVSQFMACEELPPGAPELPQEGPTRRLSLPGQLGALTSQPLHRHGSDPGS
row,SMILES,"hERG current change (%, negative = inhibition) at 10uM"
1,NC(=O)c1cccc2c1C(=O)N(C1CCCCC1)C2,-1.83%
2,COCC(C)NC(=O)CSc1nc2ccccc2n1CCc1ccccc1 (centres unmarked),-8.53%
3,Cc1cc(NC(=O)c2ccco2)ncc1NC(=O)CCc1ccccc1,-20.7%
4,CCOc1ccc(OCCOC(=O)CN2C(=O)NC3(CCCC3)C2=O)cc1,5.93%
5,Fc1cccc(Cl)c1Cn1nnc(-c2ccc3c(c2)OCO3)n1,-1.37%
6,CCOc1ccc(C2CC(c3ccc(F)cc3)Nc3nc(N)nn32)cc1 (centres unmarked),-16.3%
7,Cc1cccc(NC(=O)Nc2c(C)n(C)n(-c3ccccc3)c2=O)c1,2.93%
8,Cn1ncc(-c2ccno2)c1C(=O)O,18.9%
9,COc1ccc(C(=O)N(CN2CCCC2=O)c2ccccc2OC)cc1OC,-20.6%
10,Cc1ccc(C2=NS(=O)(=O)N(C)C(C(=O)N(C)C3CCCCC3)=C2)cc1,-46.4%
11,O=S(=O)(NC1CCC(NS(=O)(=O)c2c(F)cccc2F)CC1)c1ccc2c(c1)OCCO2 (centres unmarked),-8.97%
12,Cc1nc(N/N=C/c2ccc(O)cc2)c2cnn(-c3ccccc3)c2n1,13.9%
13,COc1ccccc1OCCNC(=O)c1ccc(C(C)(C)C)cc1,-13.9%
14,COc1ccc(C2=NOC(C(=O)Nc3cccc(O)c3)C2)cc1 (centres unmarked),-1.46%
15,O=C(Nc1ccc(Cc2ccncc2)cc1)c1ccc(S(=O)(=O)N2CCOCC2)cc1,-41.1%
16,OC1C=CSc2nc3ccccc3n21 (centres unmarked),4.02%
17,Cc1ccc(N(CC(=O)N/N=C/c2cc(C)n(-c3ccccc3C)c2C)S(C)(=O)=O)cc1,-18.4%
18,O=C(Cc1ccccc1)Nc1nc(-c2cccs2)cs1,-4.22%
19,C/C(=N\Nc1nncc2ccccc12)c1cccc(OC(F)F)c1,25.1%
20,CCC(=O)Nc1ccc(-c2nnc(SCC(=O)Nc3nccs3)n2C)cc1,13.3%
21,CCOc1ccccc1NC(=O)NCCCCc1ccccc1,18.3%
22,CCC(=O)C1=C(N2CCCC2)CC(C)(C)CC1=O,8.97%
23,O=C(NNS(=O)(=O)c1ccc(F)cc1F)c1csc(-c2cccnc2)n1,15.8%

row,SMILES,"hERG current change (%, negative = inhibition) at 10uM"
1,COc1ccc(OC)c(S(=O)(=O)Nc2cccc(-c3ccc4nncn4n3)c2)c1,18.7%
2,O=C(Nc1ccc(NC(=O)c2ccc(Cl)c(S(=O)(=O)N3CCOCC3)c2)cc1)c1ccccc1,-2.67%
3,O=C(COC(=O)CCC(=O)c1ccc(F)cc1)Nc1ccc(F)cc1F,4.1%
4,O=C(COc1ccc(Br)cc1)N1CCN(Cc2c[nH]c3ccccc23)CC1.O=C(O)C(=O)O,-57.9%
5,CCOc1ccc(CNC(=O)CCCc2cn(C)c3ccccc23)cc1,11.7%
6,ClC1C(Cl)C(Cl)C(Cl)C(Cl)C1Cl (centres unmarked),19.5%
7,CCCc1nnc(NC(=O)CS(=O)(=O)c2ccc(C)cc2)s1,6.3%
8,O=C(NCCCN1CCCC1=O)c1ccc2c(c1)NC(=O)c1ccccc1S2,9.95%
9,CCOc1ccc(NC(=O)CN(C)C(=O)c2c(C)nn(-c3ccccc3)c2Cl)cc1OCC,-0.407%
10,O=c1c2ccccc2ncn1-c1ccccc1F,9.57%
11,COc1cc2[nH]cc(C(=O)NCCc3ccccc3)c(=O)c2cc1OC,-22.4%
12,CC(C)CNc1nc(=S)nc(N(C)C)[nH]1,16.4%
13,CC(C)Cc1nc(SCC(=O)Nc2ccc(S(N)(=O)=O)cc2)n[nH]1,-7.32%
14,CC(C)c1nnc(NC(=O)CCS(=O)(=O)c2ccccc2)s1,19.5%
15,CCOC(=O)c1cccc(NC(=O)CSc2nc(N)cc(N)n2)c1,-3.02%
16,CCOC(=O)NC(NC(=S)Nc1ccc(OC)cc1)C(Cl)(Cl)Cl (centres unmarked),11.3%
17,COc1ccc(/C=C/C(=O)NC(=S)Nc2ccc(Br)cn2)cc1,20%
18,Cc1ncc(CO)c(/C=N/Nc2cccc(Cl)n2)c1O.Cl,8.89%
19,COc1cccc(CN2CCNC(=O)C2CC(=O)N(C)C2CCOCC2)c1 (centres unmarked),12%
20,COc1ccc2[nH]c(O)c(NC(C)=O)c2c1,1.61%
21,Cc1cc(C)c(S(=O)(=O)c2ccc(F)cc2C)c(=O)[nH]1,23.6%
22,COc1ccc(OC)c(C(=O)CSc2nc3cccnc3n2C)c1,-0.684%
23,COc1cc(NC(=O)c2ccccc2)ccc1NC(=O)Cc1ccccc1,12.9%

row,SMILES,"hERG current change (%, negative = inhibition) at 10uM"
1,CCOC(=O)C1=NOC2C3CC(C12)C1C(=O)N(CCc2ccc(OC)c(OC)c2)C(=O)C31 (centres unmarked),8.48%
2,CC(NC(=O)c1ccncc1)C(C)(C)C (centres unmarked),-7.78%
3,O=c1ccc(Cc2ccc(Cl)cc2)n[nH]1,16.8%
4,Cc1cc2nc(C3CCCN(C(=S)Nc4ccccc4)C3)[nH]c2cc1C (centres unmarked),25%
5,CCc1cc(C(=O)Nc2ccc(C)cc2Br)cs1,9.15%
6,Cc1oc2ccc(OC(=O)c3cccs3)cc2c1C(=O)OC(C)C,9.9%
7,COc1ccc(CC(=O)N(Cc2ccccc2)c2ccccc2)cc1S(=O)(=O)N1CCOCC1,1.07%
8,O=C(Nc1ccccc1)NC1(C(=O)NCc2ccc3c(c2)OCO3)CCCCC1,30.9%
9,O=C(c1cccc(N2CCCC2=O)c1)N1CCOCC1,8.67%
10,O=C(C1CCCO1)N1CCN(C(=S)Nc2ccccc2)CC1 (centres unmarked),-16.3%
11,COc1ccc(NC(=O)Nc2ccc(C(=O)N3CCOCC3)cc2)cc1OC,10.9%
12,CN(C(=O)CSc1nnc(-c2c[nH]c3ccccc23)o1)C1CCS(=O)(=O)C1 (centres unmarked),-21.3%
13,CCn1c(SCC(=O)O)nc2ccccc21,45.9%
14,COC(=O)C1=C(C)NC2=C(C(=O)c3ccccc32)C1c1ccc(-c2ccc(C(=O)O)cc2)o1 (centres unmarked),10.4%
15,CS(=O)(=O)N1c2ccccc2[C@@]2(Br)C[C@H]3C(=O)N[C@@H](Cc4ccccc4)C(=O)N3[C@@H]12,12.2%
16,Cn1c(N2CCCCC2)cc(=O)n(C)c1=O,22.2%
17,O=C(N/N=C/c1ccc[nH]1)c1ccncc1,20.2%
18,COc1cccc(NC(=O)COC(=O)COc2ccccc2[N+](=O)[O-])c1,6.11%
19,COc1ccc(S(=O)(=O)N2CCOCC2)cc1NC(=O)COC(=O)C1=COCCO1,5.95%
20,Cn1c(SCC(=O)NCC2CCCO2)nc2c([nH]c3ccccc32)c1=O (centres unmarked),-9.56%
21,Cc1cccc(C(=O)NCCCN(C)CCCNC(=O)c2cccc(C)c2)c1,-52.2%
22,Cc1ccc(NC(=O)CN(C)CC(=O)Nc2ccccc2-c2ccccc2)cc1,-35.1%
23,COc1ccccc1NS(=O)(=O)c1cc(-c2cnc(C3CC3)o2)ccc1C,3.37%

row,SMILES,"hERG current change (%, negative = inhibition) at 10uM"
1,CC(C)(C)OC(=O)N1CCC(c2c(C(=O)NCC3CCN(C4CCCC4)C3)cnn2-c2ccc(F)cc2)CC1 (centres unmarked),-50.5%
2,COc1cc(C(=O)Nc2cc(Cl)ccc2C)c(-n2cnnn2)cc1OC,7.69%
3,OCCN(Cc1ccccc1)Cc1cccc(Cl)c1Cl,-1.57%
4,CCCc1c(C)nc(-c2ccc(C)cc2)nc1OC(=O)N(C)C,-6.78%
5,Cc1ccc(NC2CCCN(C(=O)CSc3ccncc3)C2)cc1C (centres unmarked),-20.4%
6,O=C(CN1CCN(c2ccc(O)cc2)CC1)NC(=O)NCc1ccco1,-8.38%
7,CCOC(=O)Nc1cc(=O)c2ccccc2o1,-7.15%
8,O=C(NC1CCc2ccccc21)C1CCN(S(=O)(=O)c2ccc(-n3cnnn3)cc2)CC1 (centres unmarked),-29.4%
9,CCOc1cccc(C(=O)Nc2ccccc2C(=O)N2CCOCC2)c1,10.2%
10,CC(C)CNC(=O)c1cccc(NC(=O)COc2cccc([N+](=O)[O-])c2)c1,-24.7%
11,O=C1[C@H]2[C@@H](C(=O)N1c1cc(Cl)cc(Cl)c1)[C@]1(C(=O)Nc3ccccc31)N1CCC[C@@H]21,-2.71%
12,Cc1ccc(-n2cc3ccc([N+](=O)[O-])cc3n2)cc1,5.28%
13,Cc1ccccc1C(C(=O)NC1CCCC1)N(C(=O)CNC(=O)c1ccco1)c1cccnc1 (centres unmarked),-5.1%
14,O=S(=O)(NCC1OCCc2ccccc21)c1ccc(S(=O)(=O)N2CCOCC2)cc1 (centres unmarked),-28.3%
15,Cc1cc(C)c(S(=O)(=O)N2CCC(C(=O)NCc3ccc(Cl)cc3Cl)CC2)c(C)c1,-8.93%
16,O=C(Nc1nc2cc3c(cc2s1)OCCO3)c1ccco1,12.7%
17,COc1ccc(NC(=S)N2CCC(C(=O)c3ccc(F)cc3)CC2)c(OC)c1,-16.7%
18,CCOC(=O)c1sc(=S)n(-c2ccccc2)c1NC(C)=O,5.42%
19,O=C(Cn1[nH]c(=O)c2ccccc2c1=O)Nc1cccc(-c2nnc3n2CCCCC3)c1,-10.4%
20,COc1cc(OC)c(NC(=O)c2ccccc2F)cc1Cl,-20.6%
